The record followed here is the supplement of paper PMC4967469.

Common to all, as to test: Viability of human cancer cell lines after 72 h of drug (GDSC screen)
Compound in test [1]: NC(=O)c1cccc(-c2cc(Nc3ccc(OC(F)(F)F)cc3)ncn2)c1 [GNF-2]
The conditions noted are these: top dose 1.28 µM; top dose inferred. As to the method:
(§1)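 Human cancer cell lines in 384-well plates, medium with 10% serum, drug for 72 h over a 256-fold dose range (nine 2-fold or five 4-fold steps up to the top dose). Adherent lines were fixed and stained with the nucleic acid dye Syto60, suspension lines read with resazurin; signal relative to control wells, capped at 0 and 100%. One two-parameter sigmoid per drug and line, fitted in a mixed model over all curves with the slope shared within a line.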

Compound in test [2]: Cc1cn(-c2cc(NC(=O)c3ccc(C)c(Nc4nccc(-c5cccnc5)n4)c3)cc(C(F)(F)F)c2)cn1 [Nilotinib]
The conditions noted are these: top dose 2 µM. As for the experimental part: as §1

Compound in test [3]: Cc1ccc(Nc2cc(-c3cccc(N4C(=O)c5ccccc5C4=O)c3)ncn2)cc1NS(C)(=O)=O [KIN001-270]
Particulars: top dose 20 µM; top dose inferred. As to the method: as §1

Compound in test [4]: S=C(NCc1ccc2c(c1)OCO2)N1CCN(c2ncnc3c2oc2ccccc23)CC1 [MP470]
The conditions noted are these: top dose 20 µM; top dose inferred. As to the method:
as §1

Compound in test [5]: CC(C)c1ccccc1Cc1cc(C(=O)Nc2ccc(S(=O)(=O)c3ccccc3C(C)(C)C)cc2)c(O)c(O)c1O [TW-37]
Particulars: top dose 5 µM. As to the method: as §1

Compound in test [6]: CCNC(=O)c1noc(-c2cc(C(C)C)c(O)cc2O)c1-c1ccc(CN2CCOCC2)cc1 [AUY922]
The conditions noted are these: top dose 0.256 µM; top dose inferred. As for the experimental part: as §1

Compound in test [7]: CC(O)(CS(=O)(=O)c1ccc(F)cc1)C(=O)Nc1ccc(C#N)c(C(F)(F)F)c1 [Bicalutamide]
Particulars: top dose inferred. As for the experimental part:
as §1

Compound in test [8]: C/C(O)=C(\C#N)C(=O)Nc1cc(Br)ccc1Br [LFM-A13]
The conditions noted are these: top dose 16 µM; top dose inferred. As to the method:
as §1

Compound in test [9]: Nc1ccn([C@@H]2O[C@H](CO)[C@@H](O)C2(F)F)c(=O)n1 [Gemcitabine]
Particulars: top dose 1.024 µM. As to the method: as §1

Compound in test [10]: O=S(=O)(c1ccccc1)N(CC(F)(F)F)c1ccc(C(O)(C(F)(F)F)C(F)(F)F)cc1 [T0901317]
The conditions noted are these: top dose 10.24 µM; top dose inferred. As for the experimental part: as §1

The mark [11] stands for this setting: top dose 1.024 µM, screen: GDSC drug entry 150.
Where [12] appears, read: top dose 10 µM, screen: GDSC drug entry 1502.

A lower IC50 marks a more sensitive line; fits outside the tested doses are given as limits. AUC, from the same fit, is the share of area under the viability curve across the 256-fold dose range; it is 1 without any effect and falls as sensitivity rises. For part of these data: An inferred top dose is not printed in the source and was worked back from the curve model. For part of these data: An entry number marks a drug with two screens in the source, which often give different values.

As usually defined, the IC50 is the concentration at which inhibition is half-maximal. As to TE-15 (oesophagus, suspension), the AUC came out at 0.964 in test [1]; 0.985 in test [2]; 0.941 in test [3]; 0.879 in test [4]; 0.64 in test [5]; 0.375 in [6]. In addition, the AUC in test [7] (setting [11]) was determined as 0.984; in test [7] (setting [12]) it was 0.963; in [8], 0.979; in test [9], 0.07; in test [10] it was 0.94. Further, the IC50 is more than 1.28 µM in test [1]; more than 2 µM in test [2]; more than 20 µM in [3]; more than 20 µM in test [4]; 0.805 µM in test [5]; 0.00692 µM in test [6]. For the same cell line, the IC50 was more than 1.02 µM in [7] (setting [11]); more than 10 µM in test [7] (setting [12]); more than 16 µM in test [8]; less than 0.004 µM in test [9]; more than 10.2 µM in test [10].

With “AMO-1 (haematopoietic neoplasm, suspension)”, the AUC in [1] stood at 0.988; in [2], 0.991; in test [3], 0.931; in test [4] it was 0.848; in [5] it was 0.665; in [6], 0.535. Moreover, the AUC in [7] (setting [11]) came to 0.987; in [7] (setting [12]) it was 0.982; in test [8], 0.948; in test [9], 0.763; in test [10], 0.969. Moreover, the IC50 is more than 1.28 µM in [1]; more than 2 µM in [2]; more than 20 µM in test [3]; 11.8 µM in test [4]; 0.834 µM in test [5]; 0.0197 µM in test [6]. In addition, the IC50 in [7] (setting [11]) is more than 1.02 µM; in [7] (setting [12]), more than 10 µM; in [8], more than 16 µM; in test [9], 0.321 µM; in test [10], more than 10.2 µM.

Regarding AM-38 (glioma, semi-adherent), the AUC turned out to be 0.988 in test [1]; 0.983 in [2]; 0.951 in test [3]; 0.612 in test [4]; 0.668 in test [5]; 0.473 in test [6]. In addition, the AUC in test [7] (setting [11]) was determined as 0.988; in [7] (setting [12]), 0.987; in [8] it was 0.977; in test [9] it was 0.25; in test [10], 0.975. In addition, the IC50 in test [1] is more than 1.28 µM; in [2] it was more than 2 µM; in test [3], more than 20 µM; in [4] it was 2.56 µM; in test [5], 0.927 µM; in test [6], 0.0135 µM. Also, the IC50 was more than 1.02 µM in test [7] (setting [11]); more than 10 µM in test [7] (setting [12]); more than 16 µM in test [8]; 0.012 µM in test [9]; more than 10.2 µM in [10].

Regarding NCI-H747 (large intestine, adherent), the AUC came to 0.894 in test [1]; 0.981 in test [2]; 0.976 in [3]; 0.455 in test [4]; 0.511 in [5]; 0.499 in [6]. For the same cell line, the AUC turned out to be 0.979 in test [7] (setting [11]); 0.963 in test [7] (setting [12]); 0.961 in [8]; 0.435 in test [9]; 0.937 in test [10]. The IC50 was more than 1.28 µM in test [1]; more than 2 µM in test [2]; more than 20 µM in test [3]; 0.918 µM in [4]; 0.336 µM in test [5]; 0.0159 µM in test [6]. Moreover, the IC50 is more than 1.02 µM in test [7] (setting [11]); more than 10 µM in [7] (setting [12]); more than 16 µM in [8]; 0.0408 µM in test [9]; more than 10.2 µM in [10].

Take LAN-6 (neuroblastoma, adherent): the AUC in [1] worked out at 0.985; in test [2] it was 0.984; in test [3], 0.976; in test [4] it was 0.902; in [5] it was 0.423; in test [6], 0.792. The AUC in test [7] (setting [11]) turned out to be 0.984; in test [7] (setting [12]), 0.972; in test [8], 0.974; in [9], 0.926; in [10], 0.978. The IC50 was more than 1.28 µM in test [1]; more than 2 µM in [2]; more than 20 µM in test [3]; more than 20 µM in test [4]; 0.184 µM in [5]; 0.141 µM in test [6]. The IC50 in [7] (setting [11]) is more than 1.02 µM; in test [7] (setting [12]), more than 10 µM; in [8], more than 16 µM; in [9], more than 1.02 µM; in test [10], more than 10.2 µM.

Turning to NB5 (neuroblastoma, adherent), the AUC in test [1] amounted to 0.987; in [2], 0.985; in test [3], 0.975; in test [4], 0.308; in [5], 0.539; in [6], 0.65. Also, the AUC was 0.984 in test [7] (setting [11]); 0.981 in test [7] (setting [12]); 0.983 in [8]; 0.711 in test [9]; 0.959 in [10]. Also, the IC50 in [1] is more than 1.28 µM; in test [2], more than 2 µM; in test [3], more than 20 µM; in test [4] it was 0.36 µM; in test [5] it was 0.4 µM; in test [6], 0.042 µM. The IC50 in test [7] (setting [11]) is more than 1.02 µM; in test [7] (setting [12]), more than 10 µM; in test [8] it was more than 16 µM; in [9], 0.255 µM; in test [10] it was more than 10.2 µM.
